Some targets named below: SARS-CoV-PLP (Severe acute respiratory syndrome coronavirus, UniProt P0C6X7); SARS-CoV-3CL (Severe acute respiratory syndrome coronavirus, UniProt P0C6X7); YES1 (Homo sapiens, UniProt P07947).
What all share (format): cell-based
The target of the next experiment is HIV-1-PR (Human immunodeficiency virus type 1 group M subtype B, UniProt P04585). Conditions: HIV-1-PR model; for Max relative growth: OD595 relative to lowest drug concentration.

The results in this text go back to publication PMC11790949, “A multiplex method for rapidly identifying viral protease inhibitors” (Molecular Systems Biology, 2025).

UniProt P07947, sequence (P07947 whole entry): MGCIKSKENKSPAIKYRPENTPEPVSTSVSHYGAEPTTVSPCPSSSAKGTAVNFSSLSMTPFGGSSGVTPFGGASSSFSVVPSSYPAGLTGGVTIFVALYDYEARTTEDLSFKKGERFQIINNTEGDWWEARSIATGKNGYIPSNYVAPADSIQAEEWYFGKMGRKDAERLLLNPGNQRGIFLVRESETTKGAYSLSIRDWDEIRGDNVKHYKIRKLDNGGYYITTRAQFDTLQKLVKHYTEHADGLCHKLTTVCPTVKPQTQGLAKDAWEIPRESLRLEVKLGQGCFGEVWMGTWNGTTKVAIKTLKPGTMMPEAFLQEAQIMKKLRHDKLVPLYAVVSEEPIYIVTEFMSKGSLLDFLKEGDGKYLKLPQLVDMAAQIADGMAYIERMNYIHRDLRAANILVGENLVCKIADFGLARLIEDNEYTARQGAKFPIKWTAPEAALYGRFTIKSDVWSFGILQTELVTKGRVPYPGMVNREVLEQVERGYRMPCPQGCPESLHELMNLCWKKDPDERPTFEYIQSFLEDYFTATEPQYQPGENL

At SARS-CoV-PLP, `Cc1cc2c(cc1C)N(C(=O)CCl)CC(=O)N2` [NSC138389] had a Max relative growth of 2.65. On SARS-CoV-3CL, `O=C(Oc1ccc2ccc(=O)oc2c1)c1cccs1` [CB6762077] had a Max relative growth of 3.255.

For the molecule `CC1(C)c2ccccc2-c2nc3ccccc3cc2C1O` (stereo not shown) [NSC19824], on YES1, the “Inhibitor / Validation (true or false inhibitor in individual yeast model)” value (shortened to “Inhibitor / Validation”) was “FALSE” and the Max relative growth turned out to be 0.6378. On SARS-CoV-3CL, `NC(N)=NC(=S)Nc1ccc(Cl)cc1` [NSC403374] displayed a Max relative growth of 1.932. Consider `CC1CO/C(=C2\C(=O)OCC2C)C1` (stereo not shown) [NSC134784], for which, at HIV-1-PR, the “Inhibitor / Validation” value is “FALSE” and the Max relative growth was 0.6442. As to `CCc1cc(=O)oc2cc(OC(=O)c3ccco3)ccc12` [CB6728297], at SARS-CoV-3CL, the Max relative growth is 3.978.

`O=C(Oc1ccc2ccc(=O)oc2c1)c1ccco1` [CB6778425] had a Max relative growth on SARS-CoV-3CL of 3.799.

As for `N#C/C(=C\c1c[nH]c2ccccc12)C(N)=O` [NSC163144], at HIV-1-PR, the “Inhibitor / Validation” value is “FALSE” and the Max relative growth was found to be 1.071. Regarding `N#Cc1cnn(-c2cccc(Cl)c2)c1-n1cccc1` [NSC326644], at YES1, the “Inhibitor / Validation” value is given as “FALSE” and the Max relative growth is reported as 0.6887.
